Assay results: PubChem BioAssay AID1745853 (National Center for Advancing Translational Sciences (NCATS), 2022)
“And” between values parts separate entries of the source, which are not always exact repeats. Equal values may be shown once. This is one part of the list. The main result of the screen is listed elsewhere. These columns were measured beside it and carry no call.

Key:
Experiment in all cases: Primary Screen for Target Class Profiling of Small Molecule Inhibitors of Methyltransferases
[1] = molecular target: Glycine N-methyltransferase (Homo sapiens) (UniProt Q14749); settings: purified enzyme, MTase-Glo SAH luminescence; measured here: GNMT inhibition; at 40 µM; stronger effect = lower value
How it was run: (§1)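 Each enzyme was assayed with SAM and its substrate. SAH formation detected by MTase-Glo luminescence; single-point 40 uM screen[…].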

[2] = molecular target: Guanidinoacetate N-methyltransferase (Homo sapiens) (UniProt Q14353); settings: purified enzyme, MTase-Glo SAH luminescence; measured here: GAMT inhibition; at 40 µM; stronger effect = lower value
How it was run: as §1

[3] = molecular target: Histamine N-methyltransferase (Homo sapiens) (UniProt P50135); settings: purified enzyme, MTase-Glo SAH luminescence; measured here: HNMT inhibition; at 40 µM; stronger effect = lower value
How it was run: as §1

[4] = molecular target: Nicotinamide N-methyltransferase (Homo sapiens) (UniProt P40261); settings: purified enzyme, MTase-Glo SAH luminescence; measured here: NNMT inhibition; at 40 µM; stronger effect = lower value
How it was run: as §1

[5] = molecular target: Phenylethanolamine N-methyltransferase (Homo sapiens) (UniProt P11086); settings: purified enzyme, MTase-Glo SAH luminescence; measured here: PNMT inhibition; at 40 µM; stronger effect = lower value
How it was run: as §1
On the % scale 0 is the no-effect control and ±100 the full control effect.

SMILES	activity change, negative = inhibition [1] [%]	activity change, negative = inhibition [2]	activity change, negative = inhibition [3] [%]	activity change, negative = inhibition [4]	activity change, negative = inhibition [5]
COc1ccc(NC(=O)N2CCCC(Cc3noc(-c4ccncc4)n3)C2)cc1 (configuration not stated)	-8	-9.77%	-10.4	-19.1%	-12.3%
O=C(Nc1ccc2c(N3CCCC3)ncnc2c1)c1cc(F)ccc1Cl	-33.6	-28%	-92.4	-33.3%	-28%
CCn1nccc1C(=O)N1CCC([C@H]2[C@@H](OC)CN2C(C)C)CC1	-0.11	4.11%	2.11	-2.21%	15%
COC1CCOC2(CCN(C(=O)c3cc(-c4ccccc4)n[nH]3)CC2)C1 (configuration not stated)	-5	1.74%	1.34	-0.435%	1.02%
NC(N)=Nc1nc(CSCC/C(N)=N/S(N)(=O)=O)cs1	-0.147	14.1%	0.832	-0.396%	7%
C=C1C(=O)OC2C1CCC1(C)C(O)CC=C(C)C21 (configuration not stated)	-4.7	-3.19%	6.38	-9.01%	3.21%
COc1ccc(OC)c2c1cc1n2CC(C)(C(=O)NC2CCCCC2)N(Cc2ccccc2F)C1=O (configuration not stated)	-1.23	3.79%	-3.37	0.481%	-3.2%
CCCn1c(=O)c2ccc(C(=O)NC(C)C)cc2n2c(=O)n(Cc3ccc(Cl)cc3)nc12	2.06	2.6%	7.86	-2.9%	6.75%
C=C(C(=O)O)[C@@H]1CC=C2CCC[C@H](C)[C@@]2(C)C1	0	4.71%	8.25	-10.1%	4.71%
COc1ccccc1CC(=O)NCCn1cccc1-c1nc(-c2ccccc2)no1	-7.36	-14.1%	-5.69	-19.8%	-26.7%
O=C(Nc1nc2ccccc2n1CCc1ccccc1)c1ccccc1	-4.44	-2.88%	10.5	-20%	1.4%
CCCS(=O)c1ccc2nc(NC(=O)OC)[nH]c2c1 (configuration not stated)	-30.1	-36.4%	-27.9	-41.8%	-25.7%
CN1C(=O)c2cc(C(=O)NCCC3=CCCCC3)nn2CC1(C)C(=O)NCc1ccc(F)cc1 (configuration not stated)	-5.91	1.47%	-6.84	-1.2%	-2.46%
CC1(C)CCC2(C(=O)OC3OC(CO)C(O)C(O)C3O)CCC3(C)C(=CCC4C5(C)CCC(O)C(C)(C(=O)O)C5CCC43C)C2C1O (configuration not stated)	1.41	-3.21%	7.6	-14.6%	-5.62%
Cc1ccc(NC(=O)N2CCn3cccc3C2Cc2ccccc2)cc1Cl (configuration not stated)	-9.38	2.34%	-7.26	-8.56%	-9.28%
Cc1cnc(-c2ccncc2)n1CC1CCN(C(=O)CCCc2ccccc2)C1 (configuration not stated)	-6.09	-5.15%	-2.33	-14.5%	-7.6%

SMILES	activity change, negative = inhibition [1] [%]	activity change, negative = inhibition [2]	activity change, negative = inhibition [3] [%]	activity change, negative = inhibition [4]	activity change, negative = inhibition [5]
Cc1nnc(C[C@@H]2C=C(c3ccc(Cl)cc3)c3ccccc3-n3c(C)nnc32)o1	-21.5	-30.3%	-19.9	-60.9%	-11.9%
COc1ccccc1CNC(=O)CNC(=O)C1(C)Cn2c(cc3ccccc32)C(=O)N1C (configuration not stated)	1.18	0.087%	3.34	8.43%	-1.67%
CN1C(=O)c2cc(C(=O)NCCCN3CCCCC3)nn2CC1(C)C(=O)NCc1ccc(F)cc1 (configuration not stated)	0.169	-0.123%	-14.6	0.723%	-4.31%
COCc1nnc2n1CCC(NC(=O)C1CC=CC1)CC2 (configuration not stated)	-0.787	0.656%	3.25	-0.297%	0.096%
CC1=C(/C=C/C(C)=C/C=C/C(C)=C\C(=O)O)C(C)(C)CCC1	-1.75	7.22% and -8.57%	2.32	-7.94% and -22.2%	1.88% and -0.659%
CC(=O)O[C@@H]1C(=O)O[C@@H]2[C@H]1OC(=O)[C@@H]2OC(C)=O	1.82	4.14%	11.8	-7.83%	4.88%
COc1ccc(Cn2cc(C(C(=O)O)N(C)Cc3cccnc3)cn2)cc1 (configuration not stated)	-4.64	-7.27%	-1.49	-10.8%	-8.15%
O=C(NCc1ccc(Cl)cc1)c1ccc2ccnn2c1	-11.7	-6.41%	-3.72	-12.9%	-9.07%
Cc1cc(Cl)c2oc(C(=O)N(Cc3c(C)nn(C)c3C)C3CC3)c(C)c2c1	-6.73	-1.58%	-1.24	-28.3%	4.31%
CSc1ccc2c(c1)N(CCC1CCCCN1C)c1ccccc1S2 (configuration not stated)	-6.74	3.42%	-34.3	-35.6%	1.43%
COC(=O)[C@H](Cc1ccc(OC)cc1)NC(=O)[C@H]1CN(S(=O)(=O)c2ccccc2)CCN1S(=O)(=O)c1ccccc1	-4.83	-8.79%	-2.41	-12.6%	-8.95%
COc1ccnc2[nH]cc(C(=O)C(=O)N3CCN(C(=O)c4ccccc4)CC3C)c12 (configuration not stated)	-12.3		6.05		
CCCn1c(=O)c2ccccc2n2c(=O)n(CC(=O)Nc3cc(F)ccc3F)nc12	0.396	0%	2.8	-4.6%	3.49%
Nc1ncccc1CN1C[C@H]2CN(C(=O)C3CCC3)C[C@@]2(C(=O)O)C1	-5.86	-10.4%	-3.78	-13.4%	-6.86%
CCOC(=O)c1c(NC(=O)N2CCn3c(C)ccc3C2CC)sc2c1CCCC2 (configuration not stated)	-8.36	0%	-0.626	-18.5%	-1.83%
